Some of the results follow.
Legend:
Assay in all cases: glycan array binding signal (z-score within array); higher = stronger binding
Conditions in all cases: glycan notation: IUPAC condensed, linker removed
[1] = target: Gal(b1-4)GlcNAc(b1-2)Man(a1-3)[Gal(b1-4)GlcNAc(b1-2)Man(a1-6)]Man(b1-4)GlcNAc(b1-4)[Fuc(a1-6)]GlcNAc
Method in brief: (§1)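 Arrays were curated from the Consortium for Functional Glycomics database, 3228 in total, and kept only where the protein sequence was available. Binding is expressed as a within-array Z-score. This score was averaged across arrays of the same protein sequence at different concentrations or buffers and across linkers, and negative values can be read as non-binding.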

[2] = target: Gal(b1-4)GlcNAc(b1-2)Man(a1-3)[Gal(b1-4)GlcNAc(b1-2)Man(a1-6)][Gal(b1-4)GlcNAc(b1-4)]Man(b1-4)GlcNAc(b1-4)[Fuc(a1-6)]GlcNAc
Method in brief: as §1

[3] = target: Gal(b1-4)GlcNAc(b1-2)Man(a1-3)[Gal(b1-4)GlcNAc(b1-2)Man(a1-6)][GlcNAc(b1-4)]Man(b1-4)GlcNAc(b1-4)[Fuc(a1-6)]GlcNAc
Method in brief: as §1

[4] = target: Gal(b1-4)GlcNAc(b1-2)Man(a1-3)[GlcNAc(b1-2)Man(a1-6)]Man(b1-4)GlcNAc(b1-4)GlcNAc
Method in brief: as §1

[5] = target: Gal(b1-4)GlcNAc(b1-2)Man(a1-3)[GlcNAc(b1-4)][Gal(b1-4)GlcNAc(b1-2)Man(a1-6)]Man(b1-4)GlcNAc(b1-4)GlcNAc
Method in brief: as §1

[6] = target: Gal(b1-4)GlcNAc(b1-2)Man(a1-3)[Man(a1-6)]Man(b1-4)GlcNAc(b1-4)GlcNAc
Method in brief: as §1

[7] = target: Gal(b1-4)GlcNAc(b1-2)Man(a1-6)Man(b1-4)GlcNAc(b1-4)GlcNAc
Method in brief: as §1

[8] = target: Gal(b1-4)GlcNAc(b1-2)Man(a1-6)[GlcNAc(b1-2)Man(a1-3)]Man(b1-4)GlcNAc(b1-4)GlcNAc
Method in brief: as §1

[9] = target: Gal(b1-4)GlcNAc(b1-2)Man(a1-6)[Man(a1-3)]Man(b1-4)GlcNAc(b1-4)GlcNAc
Method in brief: as §1

[10] = target: Gal(b1-4)GlcNAc(b1-2)[Gal(b1-4)GlcNAc(b1-4)]Man(a1-3)[Gal(b1-4)GlcNAc(b1-2)Man(a1-6)]Man(b1-4)GlcNAc(b1-4)GlcNAc
Method in brief: as §1

[11] = target: Gal(b1-4)GlcNAc(b1-2)[Gal(b1-4)GlcNAc(b1-4)]Man(a1-3)[Gal(b1-4)GlcNAc(b1-2)[Gal(b1-4)GlcNAc(b1-6)]Man(a1-6)]Man(b1-4)GlcNAc(b1-4)GlcNAc
Method in brief: as §1

[12] = target: Gal(b1-4)GlcNAc(b1-2)[Gal(b1-4)GlcNAc(b1-4)]Man(a1-3)[GlcNAc(b1-4)][Gal(b1-4)GlcNAc(b1-2)Man(a1-6)]Man(b1-4)GlcNAc(b1-4)GlcNAc
Method in brief: as §1

[13] = target: Gal(b1-4)GlcNAc(b1-2)[Gal(b1-4)GlcNAc(b1-4)]Man(a1-3)[GlcNAc(b1-4)][Gal(b1-4)GlcNAc(b1-2)[Gal(b1-4)GlcNAc(b1-6)]Man(a1-6)]Man(b1-4)GlcNAc(b1-4)GlcNAc
Method in brief: as §1

[14] = target: Gal(b1-4)GlcNAc(b1-2)[Gal(b1-4)GlcNAc(b1-6)]Man(a1-6)[Gal(b1-4)GlcNAc(b1-2)Man(a1-3)]Man(b1-4)GlcNAc(b1-4)GlcNAc
Method in brief: as §1

[15] = target: Gal(b1-4)GlcNAc(b1-2)[Gal(b1-4)GlcNAc(b1-6)]Man(a1-6)[Gal(b1-4)GlcNAc(b1-2)Man(a1-3)]Man(b1-4)GlcNAc(b1-4)[Fuc(a1-6)]GlcNAc
Method in brief: as §1

[16] = target: Gal(b1-4)GlcNAc(b1-2)[Gal(b1-4)GlcNAc(b1-6)]Man(a1-6)[GlcNAc(b1-4)][Gal(b1-4)GlcNAc(b1-2)Man(a1-3)]Man(b1-4)GlcNAc(b1-4)GlcNAc
Method in brief: as §1

[17] = target: Gal(b1-4)GlcNAc(b1-2)[Gal(b1-4)GlcNAc(b1-6)]Man(a1-6)[GlcNAc(b1-4)][Gal(b1-4)GlcNAc(b1-2)[Gal(b1-4)GlcNAc(b1-4)]Man(a1-3)]Man(b1-4)GlcNAc(b1-4)[Fuc(a1-6)]GlcNAc
Method in brief: as §1

[18] = target: Gal(b1-4)GlcNAc(b1-3)Gal(b1-3)GalNAc
Method in brief: as §1

[19] = target: Gal(b1-4)GlcNAc(b1-3)Gal(b1-3)GlcNAc
Method in brief: as §1

B1: mCC1-Hexahis-Precomplexed (Mus musculus), P31809 (protein)
chain: MELASAHLHKGQVPWGGLLLTASLLASWSPATTAEVTIEAVPPQVAEDNNVLLLVHNLPLALGAFAWYKGNTTAIDKEIARFVPNSNMNFTGQAYSGREIIYSNGSLLFQMITMKDMGVYTLDMTDENYRRTQATVRFHVHPILLKPNITSNNSNPVEGDDSVSLTCDSYTDPDNINYLWSRNGESLSEGDRLKLSEGNRTLTLLNVTRNDTGPYVCETRNPVSVNRSDPFSLNIIYGPDTPIISPSDIYLHPGSNLNLSCHAASNPPAQYFWLINEKPHASSQELFIPNITTNNSGTYTCFVNNSVTGLSRTTVKNITVLEPVTQPFLQVTNTTVKELDSVTLTCLSNDIGANIQWLFNSQSLQLTERMTLSQNNSILRIDPIKREDAGEYQCEISNPVSVRRSNSIKLDIIFDPTQGGLSDGHHHHHH
- glycan array binding signal (z-score) [1]: 0.133
- glycan array binding signal (z-score) [2]: -0.278
- glycan array binding signal (z-score) [3]: -0.167
- glycan array binding signal (z-score) [4]: -0.247
- glycan array binding signal (z-score) [5]: -0.127
- glycan array binding signal (z-score) [6]: -0.222
- glycan array binding signal (z-score) [7]: -0.203
- glycan array binding signal (z-score) [8]: -0.289
- glycan array binding signal (z-score) [9]: -0.048
- glycan array binding signal (z-score) [10]: -0.172
- glycan array binding signal (z-score) [11]: -0.217
- glycan array binding signal (z-score) [12]: -0.255
- glycan array binding signal (z-score) [13]: -0.239
- glycan array binding signal (z-score) [14]: -0.015
- glycan array binding signal (z-score) [15]: -0.215
- glycan array binding signal (z-score) [16]: -0.152
- glycan array binding signal (z-score) [17]: -0.211
- glycan array binding signal (z-score) [18]: -0.158
- glycan array binding signal (z-score) [19]: -0.196
